Laboratory results reported in the supplement of paper PMC3334620.
Whole data set: some 33,000 sequences, median “E-score (-0.5 to 0.5)” near -0.016, cut for the highest 2% near 0.31. This is one part of the list.

What follows are sequences tested against Cst6 (UniProt P40535) (assay: PBM E-score (8-mer binding enrichment) (E-score (-0.5 to 0.5)); higher = stronger / more preferred TF binding; most listed sequences are background and not binding sites). Settings: protein concentration: 200 nM; construct: GST-DNA-binding domain.
Method in brief: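 Universal all-10-mer Agilent arrays, fresh or stripped once, were converted to double-stranded form by primer extension. GST-tagged yeast transcription factors from PURExpress in vitro transcription/translation, full-length or DNA-binding domain only, were applied at about 100-200 nM and detected with fluorescent anti-GST. After masliner normalisation, the Universal PBM Analysis Suite scored each ungapped eight-base word together with its reverse complement by E-score.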

Sequence	PBM E-score
ACGCTACC	-0.233
ATTTTATC	0.24
AGAGGCCC	-0.33
AGCGATTC	-0.0966
GCCAACCC	-0.22
GAGGTTAA	-0.146
CACGAGGC	0.184
CGGCAAAA	0.187
CGGTCGTA	-0.304
GCAAAAGC	0.0455
GGGGTCCA	-0.269
ACGAGGCA	0.171
CAAGGTAG	-0.2
GCCATCGA	-0.0885
CAGGAGGC	-0.0878
AACTAAAC	0.14
CGCCGGAG	-0.202
ATCTAAAT	0.14
CTTCGGTC	0.0701
CTTTCGCA	0.00133
AGTCTATC	-0.115
CCCTTAAG	-0.132
GGTGAACC	-0.0708
CTCGTGGC	-0.143
CCCCGATA	-0.262

Sequence	PBM E-score
AACGGCCT	-0.113
CCTAAGTA	-0.0781
AGTTAGAA	0.0267
CCGGTGTA	-0.241
CTAAAAGA	-0.0719
AATAACGC	0.0476
TATATTGA	0.135
ACAACATC	0.0511
ATCCGATC	0.154
GCTTATCA	0.0277
ATCGAATG	0.218
CTATGTAA	0.173
CGATCCAA	-0.127
AGCACTAT	-0.131
CACACTTA	0.178
GAGGAGTA	-0.019
GCAACGTA	0.209
AGTGGCTG	-0.122
AGGCCTGA	-0.0753
AAATATAC	0.145
CGACCAAA	0.205
CGTATGGA	0.0331
AACTAGTT	0.107
GTTCTCCA	-0.162
TAGGTGGA	-0.0365

Sequence	PBM E-score
CCATATAG	-0.11
GGATCATA	-0.0327
ATATACCA	0.0653
ATTAATGG	0.192
GCTGAGTA	-0.255
ACTCGTAC	-0.148
GGCTAACA	-0.0763
ATACCGAC	-0.0697
CCAACTGG	-0.132
ATTAACTA	0.137
GCCCGACA	0.00601
ACGATGAC	0.387
CGCGTCCG	-0.0105
AACCGATG	-0.0164
ATCTTCCC	0.0395
CCAAGATC	-0.12
GTCAATCA	0.192
AAATGTCT	-0.0179
AATGAGCC	-0.0483
AAAGCTGC	-0.0537
ACCGGGCA	-0.313
ATGCCTCG	0.317
CATAAGAG	0.0335
AGAAGCTC	-0.186
AACGGTGG	-0.293

Sequence	PBM E-score
AGAGAGGG	-0.278
CATGCAGC	-0.058
GGAGTGCC	-0.136
GTTCTAAA	-0.0506
CGGAGTTA	-0.0715
TCGAGGAA	-0.153
CCCCGAGA	-0.221
AACACTTG	-0.121
GCCTACAA	-0.0676
ACGTTTCC	-0.0167
CGTCCGCA	0.0467
GATGATTA	0.2
CGCTCCAA	-0.112
CGCTCGTC	-0.00654
ACTGCACG	-0.0749
GGTTCCAA	0.115
ACAACTAG	0.0101
AACAGCGC	-0.0479
AAGCCTCA	-0.11
TCTCCTAA	0.0818
ACTCCTCC	-0.251
TCGAAAAA	0.259
AGGCATGA	0.0538
AAACCGTC	-0.0347
ACGTAAAC	0.31

Sequence	PBM E-score
TACTTCGA	0.186
AATGCTAT	0.0889
GGGCTAGA	-0.189
GAACTCCC	-0.1
GGGCCTCA	-0.222
GGAGCTTA	-0.194
ACTTTATC	0.0378
AGCTGCAA	-0.171
ACCGACTA	-0.178
CGATTTGA	0.0282
GACCCCGA	-0.255
GGGTGGAC	-0.163
CAGCGCCC	-0.0102
CTAATTGC	0.0224
GTCGGCAA	-0.0764
CCTGTTGC	-0.169
GGGTCTCA	-0.197
GGGATAAC	-0.251
AATAGGCT	0.0294
AAGACCCG	-0.0432
CAAATGCC	0.00938
CCGAGCGA	-0.108
GTGCCTTA	0.2
AGTACCTC	-0.0912
GTTTAACA	-0.0323

Sequence	PBM E-score
GAACAGGA	-0.0633
AGTGATAC	0.0425
ATGTCTAA	0.196
CCTCCACA	-0.107
CAAGTTGC	-0.0682
CGCCGTTA	0.124
GGTTCCCA	-0.187
GGAATGAC	0.255
ATAACCAC	0.0196
GTCACGAC	0.203
CCCAACAG	-0.37
AAATCAGT	0.106
ATTGGAGC	0.0474
CAAACGCC	0.0643
CAGACGAC	-0.244
ACGTTAGA	0.234
AAGTCACA	0.119
ACGTTCAT	0.113
AAGAATCT	-0.146
GACACCCA	-0.0565
GGGCCAGA	-0.195
ACTCTTAG	-0.0755
GATCTCCA	-0.109
ATCCGCCA	-0.244
GATATCGA	-0.00685

Sequence	PBM E-score
GAACCAAC	-0.0562
GATACGAC	0.0285
GGCTTCCC	-0.235
AGGTCGAT	0.00303
ATCATGTG	0.0829
AACTTAGT	-0.00478
ATAATGCG	-0.0118
GGCTCCCC	-0.226
CGGGATAC	-0.233
ACTGATCG	-0.131
GCCTGGGA	-0.176
AAACTACA	0.134
ACGGCAGA	0.064
CATCGAAC	0.0435
CTCCCAGA	-0.297
GCCATGGC	-0.0795
ACAGAAGC	0.106
AGCACCCA	-0.102
ATACGAAC	0.116
GAGGGGGA	-0.31
AGTTCCTA	0.048
CGTCACAG	0.424
ACGCACAC	0.087
AGTGTGAT	0.187
ATAAGCGA	0.127

Sequence	PBM E-score
ATTGCACA	0.0846
CGCACGAC	0.00764
CGGGGAGC	-0.101
GAGAAGTA	0.0248
ACCCACCT	-0.293
AGTCGAAT	-0.101
AACCGTTC	-0.027
AGGTGGGC	-0.289
CCTGTCAC	0.00819
TATAACAA	0.249
ATTTCGTC	0.266
CCCGAGGG	-0.305
GTGAAGTA	0.0577
AATGAGAA	0.0521
CCTGTACC	-0.27
CCGACAAC	0.0825
ATTCCCAC	0.0107
AATGAGGC	0.0379
GCAATCAC	0.025
TAGGCAAA	0.136
AAAGGCGG	0.0337
GCACTTCC	-0.181
CCTCCGAA	-0.293
GAACAGGC	-0.075
AATAGCGA	0.0714

Sequence	PBM E-score
AAACCACT	-0.0138
GCCCGGAC	-0.261
CTGATTGA	0.0486
ACTCGCTA	-0.192
AATACCTG	-0.113
AATAGGTC	0.00662
ACCGATTA	0.0195
TACTATAA	0.171
CAGCAACC	-0.226
AACGATGA	0.172
GTTTACGA	0.0714
ACCCATAT	0.073
ACTCGGAG	-0.124
CAGGCGCG	-0.023
CCGCTCCG	-0.0524
CGAGAGCG	-0.0851
TATCAAGA	0.111
AACGCTTG	-0.203
ACCTGATC	-0.128
TGTATAAA	0.0714
AAACCCTC	-0.0537
ACAGAACC	-0.157
GCACGGTA	-0.0872
CTGACTCC	-0.208
CTCTTAAC	0.0444

Sequence	PBM E-score
ACGAGAAC	0.0812
ACATTTAA	0.193
ATGTACGC	0.0103
GCCCGCAC	-0.186
ACGATATG	0.148
AATGACCG	0.178
CCGTCGAC	-0.0651
GCTGATAC	-0.0819
CCCCAGGA	-0.313
ACGTTGAC	0.165
CAAGGCGG	0.00218
AGAAGCTA	-0.0862
ATACCCAA	-0.0566
AATGGCAC	-0.0183
GTCCCCAA	-0.00902
GCAGGTAA	0.0757
AATGCGCG	0.171
GTGGTAGA	-0.2
CTCGCGCA	0.0158
ACACGCCT	0.00407
ATCTGCTA	0.126
TAATCACA	0.196
ACGAAAGC	0.0816
ATGAACCG	-0.052
ACCTTAAG	-0.0269

Sequence	PBM E-score
CCCCGAAA	-0.0996
AATCGTCG	-0.0141
CGACCCCC	-0.41
GAGGTCAC	0.123
ACCGGTGG	-0.357
CCACAGAC	-0.19
GGACTCAC	-0.2
AAGTGTGT	0.132
GGAAAGGA	-0.18
GACCTAAC	0.0894
AACGCCGG	-0.138
CTAAACGA	-0.00391
CTTCTCGA	-0.0306
CATATAGA	0.101
ATCTGGTG	0.198
ATGCCCAA	-0.0689
ACGCGATC	0.144
CGAGGACA	-0.163
AGTCTGAT	-0.0795
GAGACACC	-0.152
GGCTTCAC	-0.0904
GCCGATGA	-0.0164
CCGTCAGA	-0.0924
CCGCCGGC	-0.146
CTTTCCCC	-0.0891

Sequence	PBM E-score
ACTGAAAC	0.234
ACACAAAA	0.158
ATGTTGTA	0.171
AGCTGCTG	-0.0369
ACTGTGTG	-0.0108
AACCTAGT	-0.179
ATTTTTAC	0.201
CGTCTATA	-0.0233
ACAGTAGT	-0.0233
GCGTAGAA	-0.0134
CACGACCC	-0.145
TAAAATAA	0.238
CGGACTTC	-0.199
GCTCGACC	-0.0876
ACAGTAAT	0.196
GGACAGTA	0.0836
CACCTGAA	0.139
CTGCTTTA	0.0782
TCGGTTCA	-0.106
CACCTATC	-0.00186
CTACCGGA	-0.268
ATTCTGCG	-0.0773
AATCTGGC	-0.122
GATGCTCA	-0.0988
AACGAGCG	0.124

Sequence	PBM E-score
AAGTCGCG	-0.0692
CAACCTAA	0.129
GAAAGGCA	0.236
GGAGTGGA	-0.109
ACGGCGAA	0.274
ATCTGTAC	0.226
CATGAAAC	0.122
TACGTCCA	0.0953
CCCTGGTA	-0.0648
GTCGACGA	0.0516
ATACCATA	0.181
CGTTGAGC	-0.0169
ACGCCCGT	-0.0034
TGGACGAA	0.089
AAATAACT	0.249
CATTAAGG	0.12
CGACACCG	-0.222
AGCTATGG	-0.1
CTGGTGCC	-0.0236
AGGATCAC	-0.0106
CCCTCAAG	-0.23
CTGACGTA	0.489
CTCGGTGA	0.135
CAAAGAAC	0.0715
ACCTCAAC	0.123

Sequence	PBM E-score
CCATCAGA	-0.134
GTATAGAA	0.0359
AGTGATCG	0.0149
ATGAACGG	-0.0194
CTAGCGTC	-0.0842
ACTGTATA	0.03
CAGAAATG	0.127
GGGTGAGA	-0.25
CGGTTCAG	-0.219
GCGCAGAC	-0.0837
CTCCCGAC	-0.282
AAGGCTTC	-0.127
ACGCGATG	0.122
CCAGAAGA	-0.0494
CCTTTCAA	0.0356
GAGAGATA	0.0892
CCTACAAG	-0.107
ATGATAGA	0.00031
CGACTCTA	-0.123
